The record followed here is patent US11034672B1, “Tyrosine kinase inhibitor compositions, methods of making and methods of use” (Black Diamond Therapeutics, Inc., priority 2018, dated 2021).

This assay concerns covalently-activated EGFR variants. Description: Covalent dimer formation, Western blot under non-reducing conditions. The class given is cell-based. Particulars: covalent dimers of covalently-activated EGFR variants (EGFR-Vii, EGFR-A289V), Table 6.
In the case of `CCOc1cc2ncc(C#N)c(Nc3ccc(OCc4cccc(F)c4)c(Cl)c3)c2cc1NC(=O)/C=C/CN(C)C` [HKI-357], the Induced dimers entry is reported as “No”.

As to `COc1cc2ncnc(Nc3ccc(F)c(Cl)c3)c2cc1NC(=O)/C=C/CN1CCCCC1` [Dacomitinib, dacomitinib], the Induced dimers entry is “Yes”.

Consider `C=CC(=O)Nc1ccc2ncnc(Nc3ccc(OCc4cccc(F)c4)c(Cl)c3)c2c1` [AST-1306], for which the Induced dimers entry is “No”.
